Assay results: PMC6919601, “Identification of Plasmodium dipeptidyl aminopeptidase allosteric inhibitors by high throughput screening” (PLoS ONE, 2019)
Among all 110,000 compounds or so, about 230 (0.21%) showed an effect of 50% or more. This is one part of the list.

Molecular target: DPAP1 (Plasmodium falciparum, UniProt Q8IIJ9)
Assay: primary screen, percent inhibition; read by cleavage of a fluorogenic dipeptide substrate; higher = more effect of the substance
Parameters: species or system P. falciparum D10 trophozoite lysates; single well
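Further: 30 min substrate incubation versus DMSO and 10 µM JCP410 controls.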

DPAP1, sequence (Q8IIJ9 whole entry, looked up): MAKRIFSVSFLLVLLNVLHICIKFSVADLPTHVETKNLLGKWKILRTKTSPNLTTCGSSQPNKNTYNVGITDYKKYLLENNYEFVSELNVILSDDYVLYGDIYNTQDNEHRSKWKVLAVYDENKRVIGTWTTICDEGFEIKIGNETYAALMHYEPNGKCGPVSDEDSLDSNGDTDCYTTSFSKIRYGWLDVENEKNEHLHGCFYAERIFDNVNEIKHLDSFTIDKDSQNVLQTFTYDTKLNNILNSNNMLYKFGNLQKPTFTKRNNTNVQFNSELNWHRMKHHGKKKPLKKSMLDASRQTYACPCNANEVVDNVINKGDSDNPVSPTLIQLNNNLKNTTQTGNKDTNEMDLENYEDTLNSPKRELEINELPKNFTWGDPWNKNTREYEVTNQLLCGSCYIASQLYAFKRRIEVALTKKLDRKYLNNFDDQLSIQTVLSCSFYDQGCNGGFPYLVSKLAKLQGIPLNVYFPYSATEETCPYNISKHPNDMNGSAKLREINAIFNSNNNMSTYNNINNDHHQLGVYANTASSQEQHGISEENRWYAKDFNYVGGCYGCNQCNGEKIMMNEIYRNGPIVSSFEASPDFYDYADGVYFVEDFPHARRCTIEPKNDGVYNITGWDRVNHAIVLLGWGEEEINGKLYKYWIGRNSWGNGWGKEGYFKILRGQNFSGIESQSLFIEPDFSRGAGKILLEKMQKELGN

SMILES	% Inhibition @ 10 uM
O=C(NCCSc1ccc(Cl)cc1)c1ccc(CN2CCOCC2)cc1	2.36%
CC(C)N1CCN(Cc2ccccc2Br)CC1	3.06%
COc1ccc(-c2noc(CNC(=O)N3CCOCC3)n2)cc1	-4.82%
COc1ccc(C(=O)Nc2cc(C)ccc2C)c(OC)c1	-8.33%
CN(C)CCN(Cc1ccccc1)Cc1ccc([N+](=O)[O-])cc1	5.01%
Cc1cc(C)n(-c2nc3c(C)cccc3s2)n1	4.31%
N#Cc1c(C(F)(F)F)cc(C23CC4CC(CC(C4)C2)C3)nc1SCC(N)=O	5.83%
COc1ccc(-c2csc(NC(=O)CSc3nc(C)c(CC(C)C)[nH]3)n2)cc1	-2.79%
O=C(Nc1cccc(F)c1)c1ccc(-c2ccccc2)cc1	-3.72%
COc1ccc(C2CC(=O)n3nc(N)nc3N2)cc1 (stereo not shown)	-3.53%
O=C(c1cccc(Br)c1)N1CCN(c2ccc(F)cc2)CC1	-11.1%
Cc1cc(NC(=O)COCc2cc(-c3cccs3)on2)nn1Cc1ccc(Cl)cc1	-6.47%
CCOC(=O)c1cnc2c(ccc3ccccc32)c1NCCOC(=O)c1cccc(C)c1	0.884%
Cc1nn(-c2ccc(N3CCOCC3)nn2)c(C)c1CCC(=O)O	4.01%
COc1ccc(OC)c(C2C(C#N)=C(N)Oc3c2c(C)nn3-c2ccc(C)cc2)c1 (stereo not shown)	-0.366%
Cc1cccc(CCNC(=O)Cn2ncc3c2-c2ccccc2OC3)c1	-2.42%
Cn1c2ccccc2c2nnc(SCC(=O)Nc3nnc(COc4ccccc4)s3)nc21	-6.94%
O=C(CCC(=O)N1CCc2ccccc21)N1CCc2ccccc21	0.121%
O=C1N/C(=C\c2ccc(Cl)cc2)C(=O)c2ccccc21	5.06%
O=C(c1ccco1)N1CCN(C2CCCCC2NS(=O)(=O)c2ccccc2)CC1 (stereo not shown)	1%
Cc1ccc(N(CC(=O)N2CCOCC2)S(=O)(=O)c2ccc(C)cc2)cc1	-5.67%
COc1ccccc1NC(=O)c1c(C)cc(=O)n(-c2ccccc2OC)c1C	1.54%
Cc1ccc2c(CC(=O)Nc3sc4c(c3C(N)=O)CCCC4)coc2c1	5.7%
COc1cccc(-c2coc3cc4oc(=O)c(CCC(=O)O)c(C)c4cc23)c1	3.81%
O=C(NCc1cccnc1)c1cc2c(Cl)ccc3c2n1CCO3	5.71%

SMILES	% Inhibition @ 10 uM
COCCNC(=O)C1CCN(c2ncnc3c2nc2n3CCCCC2)CC1	0.958%
Cc1ccc(C(=O)/C=C/c2cc(Cl)cc3c2OCOC3)c(O)c1	8.98%
CS(=O)(=O)c1nc(S(=O)(=O)c2ccc(Cl)cc2)c(NCCC2=CCCCC2)s1	-9.79%
CC1CN(Cc2cccc(Cl)c2Cl)CC(C)O1 (stereo not shown)	-2.78%
CS(=O)(=O)CC[C@@H](NC(=O)OCc1ccccc1)C(=O)NCC#N	3.1%
CCCOc1ccc(-c2nonc2NC(=O)COc2ccc(F)cc2)cc1OCCC	-1.47%
Cc1onc(-c2ccccc2Cl)c1C(=O)Nc1cccc(F)c1	-7.34%
c1ccc2c(c1)CCOC2C1=NCCN1 (stereo not shown)	0.774%
CCCS(=O)(=O)N1CCN(Cc2ccccc2Br)CC1	-3.41%
CC1CCC(NC(=O)C(NC(=O)C2CCC(C)CC2)C(C)C)CC1 (stereo not shown)	-4.96%
Nc1nnc(COc2ccccc2Cl)s1	-1.93%
Cn1nc(C(=O)N2CCCC2)c2c1-c1ccccc1S(=O)(=O)C2	-1.67%
Cc1ccc(-c2cnc(NCc3ccc(F)cc3F)n2C)cc1	2.31%
O=C(Nc1cc(C(F)(F)F)ccc1Cl)c1ccc(-c2ccccc2)cc1	-1.15%
Cn1c(C2=CC(C)(C)NC(C)(C)C2)ccc1C1=CC(C)(C)NC(C)(C)C1	-5.9%
CS(=O)(=O)N(CC(=O)N1CCCCC1)c1ccc(Cl)c(C(F)(F)F)c1	-3.39%
O=C(Nc1nccs1)C1CCCN(c2ncnc3c2nc2n3CCCCC2)C1 (stereo not shown)	-2.21%
O=C(c1ccc2c(c1)sc1nc(-c3ccccc3)cn12)N1CCN(Cc2ccccc2)CC1	32.5%
CCN(CC)c1ccc(C2C3=C(O)CCCC3=NC(C)=C2C(=O)Nc2ccccc2F)cc1 (stereo not shown)	-2.64%
COc1ccc(/C=C/C(=O)NCCNC2=NS(=O)(=O)c3ccccc32)cc1	3.72%
CC(C)CCNC(=O)C1CCCCN1S(=O)(=O)c1ccc(F)cc1 (stereo not shown)	-4.06%
Cc1cccc2[nH]cc(CC(NC(=O)c3ccc(-c4ccccc4Cl)cc3)C(=O)NCC#N)c12 (stereo not shown)	-6.98%
Nc1ccc(Cl)c(NC(=O)c2ccccc2)c1	-5.12%
O=C(O)C1C2C=CC(O2)C1C(=O)Nc1ccc(Oc2ccccc2)cc1 (stereo not shown)	-11.2%
COc1ccc(OCC(=O)Nc2sc(C)c(C)c2C(N)=O)cc1	2.48%

SMILES	% Inhibition @ 10 uM
CCOC(=O)c1sc(C)c2c1NC(C)(c1ccccc1)NC2=O (stereo not shown)	-5.63%
COc1ccccc1N1C(=O)/C(=C/c2ccc(O)c(O)c2)C(=O)NC1=S	-2.42%
CCCOc1ccc(C2C3=C(O)CCCC3=NC(C)=C2C(=O)OCC)cc1OC (stereo not shown)	14.3%
CCN(Cc1ccccc1)C(=O)CSc1nc2cccnc2[nH]1	3.95%
COc1ccc(NC(=O)c2ccc(Br)o2)c(OC)c1	-0.996%
CC1CCN(CCOCCOc2ccc(Br)cc2)CC1	-19.7%
Cc1ccc2c(c1)-c1onc(C(=O)N3CCN(C(=O)c4ccco4)CC3)c1CO2	-0.825%
Nc1c2c(nc3sc4c(c13)CCCC4)CCCCC2	-4.03%
COc1cc(CN2CCCCCC2)cc(Br)c1O	-3.72%
CC1(C)CC(=O)C2=C(C1)OC(N)=C(C#N)C2c1ccc(OCC(=O)Nc2ccccc2)cc1 (stereo not shown)	1.19%
CCOc1ccc(NC(=S)Nc2ccc3nccnc3c2)cc1	-0.267%
Cc1ccc(S(=O)(=O)N(CC(=O)N2CCc3ccccc3C2)c2ccc(F)cc2)cc1	-6.75%
O=C(CN1CCOCC1)NC12CC3CC(CC(C3)C1)C2	1.9%
O=C(NCCCO)/C(=C\c1ccc(Br)cc1)NC(=O)c1ccccc1	-2.87%
Cc1nc(O)c2c(n1)OC(N)=C(C#N)C2c1ccc(F)cc1 (stereo not shown)	-2.54%
O=C(Cn1cnc2c(nnn2-c2ccc(F)cc2)c1=O)NCc1ccco1	-0.431%
C=CCn1c(SCC(=O)c2ccccc2)nc2ccccc2c1=O	0.52%
COc1ccc(CCNC(=O)C2=CCN(S(=O)(=O)c3ccc(F)cc3)CC2)cc1OC	-1.21%
CCN(CC)CCS(=O)(=O)CCC(N)=O	-6.82%
O=C(Nc1cnn(Cc2ccccc2)c1)NC12CC3CC(CC(C3)C1)C2	1.25%
CC(C)(CNC(=O)C1CCCCC1)CNC(=O)C1CCCCC1	-1.36%
O=C1NN=CC(c2ccccc2)(c2c[nH]c3ccccc23)N1 (stereo not shown)	-2.92%
CCc1nn(CC(=O)NCc2cc(OC)ccc2OC)c(=O)c2cc3c(OC)cccc3n12	4.84%
CC(=O)c1c(C(C)=O)c(C)n(-c2cc(C)c(C)cc2N)c1C	3.29%
O=C(NCCc1ccc(Cl)cc1)c1oc(=O)c2ccccc2c1-c1ccccc1	-3.35%

SMILES	% Inhibition @ 10 uM
Cc1ccc(-c2noc(CN(C(=O)c3ccc(Br)o3)C(C)C)n2)cc1	1.38%
CSc1nc(/C=C2\C=Nc3ccccc32)c(O)n1C	-4.67%
Cc1ccc(O)c(NC(=O)c2cc3nc(-c4ccc(F)cc4)cc(C)n3n2)c1	-2.97%
Cc1cc(C=C2C(=O)c3ccccc3C2=O)c(C)n1-c1cccc(C(=O)O)c1	6.89%
CCOc1cc(C#N)c(Br)cc1OCC(=O)Nc1ccccc1OC	-6.02%
CCSc1nnc(-c2ccc(C)cc2)c2ccccc12	6.23%
Cc1nc2c(C(=O)NCCC3=CCCCC3)cnn2c(O)c1Cl	2.9%
Cc1csc2nc(CNS(=O)(=O)c3ccc(Cl)s3)cn12	5.65%
CC(=O)C1=C(C)N=C(S)NC1c1ccccc1O (stereo not shown)	-5.5%
Cc1ccc2oc(C(=O)Nc3nc4ccc(F)cc4s3)cc(=O)c2c1	-1.47%
CCOC(=O)c1c(NC(=O)c2ccc(Cn3nc(C)c(Br)c3C)cc2)sc(C)c1C	2.1%
O=C1N=C(Nc2ccccn2)SC1Cc1ccc(Br)cc1 (stereo not shown)	-4.16%
N#CC1=C(N)Oc2[nH]nc(-c3ccncc3)c2C1c1ccc(O)cc1 (stereo not shown)	4.33%
CSc1nc(O)c(Cc2ccccc2)c(O)n1	-3.94%
CC(NC(=O)c1nc(-c2ccc(C(F)(F)F)cc2)no1)c1ccccc1 (stereo not shown)	-1.24%
O=C(O)CNC1CCS(=O)(=O)C1 (stereo not shown)	0.627%
CC(C)(C)c1ccc(C(CC(=O)O)NC(=O)Cc2ccc(F)cc2)cc1 (stereo not shown)	-6.28%
CC1(C)CC(=O)C2=C(C1)N(Cc1ccco1)C(=O)NC2(C(F)(F)F)C(F)(F)F	1.91%
CC(=O)N1CCc2c(sc3c2c(=O)n(Cc2ccccc2)c(=O)n3Cc2ccccc2C#N)C1	0.0579%
Oc1ccc2ccccc2c1CN1CCN(Cc2ccccc2)CC1	6.33%
c1ccc(OCCn2c(N3CCOCC3)nc3ccccc32)cc1	0.627%
N#Cc1nc(COc2ccccc2F)oc1NCCCn1ccnc1	-0.99%
CC(C)Oc1ccc(CNC(=O)c2ccc(CS(=O)Cc3ccc(Cl)cc3)o2)cc1 (stereo not shown)	-3.02%
COc1ccc2c(C)c(CCC(=O)N3CCOCC3)c(=O)oc2c1C	-2.57%
O=C(Cn1cnc2c(nnn2-c2ccc(F)cc2)c1=O)N1CCOCC1	-2.16%
